# According to the supplement of paper PMC11417369:
# ± gives the standard deviation of the averaged measurements. Some of the results follow.
# Tested on: PfAP2-EXP AP2 domain (GST-tagged)
# Test: gcPBM binding intensity (ln(normalized median fluorescence intensity)); higher = stronger DNA binding
# Outline: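 The highest Masliner-normalised natural-log median intensity across replicate spots of either probe orientation is reported as binding intensity. GST-tagged P. falciparum DNA-binding domains expressed in E. coli were applied for 1 h to an Agilent 4 × 180k array of primer-extended double-stranded 36-bp intergenic genomic probes plus negative controls, and bound protein was detected with Alexa488 anti-GST antibody and scanned at 488 nm.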
row,Sequence,gcPBM binding intensity (ln)
1,TATATCTTAATATACACACACACATATATATATATA [CACACA_site4968],10 ± 0.35
2,TAAATATTTTTATGGGTGCGTTCTTTAGCGCAATTT,8.67 ± 0.14
3,CATATAAAAAATATGGTGCAGTTTTTTTTTTTTTTT,8.48 ± 0.16
4,TATATATATAATGTTTGTACATATTAAATATATATG [XGTACX_site407],8.95 ± 0.11
5,AAAAAAAGTTGATACTGTACTCGTGCATTATGAATA [XGTACX_site5558],9.06 ± 0.33
6,CTTATTAAAATTATTTGTACACAATATGTAAAAGTA [XGTACX_site7237],8.35 ± 0.39
7,TAATTAAAATTATCTACACACCTTTATAAATATATA [CACACA_site3928],8.15 ± 0.4
8,AGGTATTTTCTTGTGACACACATATATATATATATT [CACACA_site2220],9.13 ± 0.38
9,TTTATATTGATATATACACACATATACATCCTATTT [CACACA_site7442],8.46 ± 0.4
10,ATTATTGTTGTTCATGTACACACTATAATAAAAGCA [CACACA_site4168],8.64 ± 0.32
11,TTTTGCAATAATGTTGCACACTAAATAGTCATATAT [CACACA_site7977],8.61 ± 0.38
12,ATTAATTATTTCAATGCATGTGAACACTATATATAA [TGCATGCA_site600],9.03 ± 0.44
13,AAACTTGTAAGAAACACACACACACGCATATAAATA [CACACA_site6518],8.84 ± 0.68
14,ATAAATAAAATATGCACACAAATATAGGAAACAACA [CACACA_site2561],9.03 ± 0.38
15,AATATTTAAGTACTGGTGCGTGTATATAATGATTAA [GTGCAC_site9633],8.665 ± 0.078
16,TTTATTCCCGCATATAGTACATATACCATTTAATGT [XGTACX_site7011],9.01 ± 0.47
17,GTAAAAAAAGAGCACACACACAAAAACACCCACAAA [CACACA_site1292],8.85 ± 0.54
18,ATATAATATGGTATTACACACTGTTATAAGTATGGC [CACACA_site2094],8.57 ± 0.44
19,CATAAATACACTGTAGCGCACACGGCCAAAAAAAAA [CACACA_site8537],8.87 ± 0.48
20,CATAATTTACATAAAAGTACATATATATTAATGACG [XGTACX_site6247],8.57 ± 0.37
21,TTAAATAAAATTTATTGTACATAAAATTAAATATAG [XGTACX_site3039],8.37 ± 0.24
22,TCCTTTTCTTAATTTAAAAAATATAAAAAAAACGAA [CACACA_negctrl_site1821],8.28 ± 0.36

row,Sequence,gcPBM binding intensity (ln)
1,AGAAGCATACATCAAGCACACACACCCACACCCACA [CACACA_site8014],8.74 ± 0.35
2,ACACGTTTATATAAAAAATTAAAATTTTTCTTATTT [CACACA_negctrl_site1523],8.54 ± 0.33
3,ATAACAAAATAAAACACACACACAAATGTACAGATA [CACACA_site5358],8.9 ± 0.39
4,TATTCATGTTTAAAAAGTACATATTATGGTAACATT [XGTACX_site4533],8.46 ± 0.45
5,ATTTTTGTGTTTACACGTACGTGTAAATTATTTTTC [XGTACX_site1869],9.04 ± 0.43
6,ACATATCTACACAGTGGTACTTCCATTAATATATAC [XGTACX_site3827],8.81 ± 0.34
7,AAAAGGGATAAATGTGCGCACATGTTATATATATAT [GTGCAC_site9534],10.03 ± 0.042
8,AACAATGTTGTACATACACACACACTAATAAAAAAT [CACACA_site8758],8.9 ± 0.5
9,ATTTATTCAAATGGTTGTACTACAAATAAACATTAT [XGTACX_site3378],8.51 ± 0.21
10,TCATAAATTAAACAAACACACACGTTCTTTTATTTA [CACACA_site713],8.38 ± 0.33
11,AATACATACAGACACACACACACATATAAATAAATA [CACACA_site7642],8.66 ± 0.2
12,GCTCATTGAAGTTATACACACCAAATATGTAAATAT [CACACA_site7217],8.52 ± 0.42
13,ATTTTAACGAATATATGTACATAAAAAAAAAAAAGA [XGTACX_site8750],8.91 ± 0.4
14,TAAGTAAAAAATTAAAAAGATTACAGGGGGGGAAGG [XGTACX_negctrl_site491],9.87 ± 0.2
15,GACATAAGATAATTACACATTGTTTCCTCAATAATA [CACACA_negctrl_site1616],8.46 ± 0.32
16,TTTCTTTAATATATAGTGCATGTAAATTTTACAATA [GTGCAC_site9679],8.96 ± 0.2
17,AAAAAAAAAAACAGTTGTACATTTATTTATATATTA [XGTACX_site217],8.15 ± 0.35
18,AAAATAAGGACTGTTGTGCACTGGATTTGTGGTTAC [GTGCAC_site9830],9.04 ± 0.22
19,AAAATAAAATTTACTTGTACTAAAGGGATACGCGCA [XGTACX_site1453],8.59 ± 0.26
20,AATTAATATTTAAATTGTACATGAACATTTTAATGT [XGTACX_site462],8.24 ± 0.38
21,TAAATATTATTTATATGTACTGATATATTAAATAAA [XGTACX_site3446],8.03 ± 0.37
22,AATATAAATTTATATTGTACATATTTTATTATATGT [XGTACX_site905],8.45 ± 0.39
